From the supplement of paper PMC12423691 come the findings set out here.

The list shows a part of the results. Binding of human transcription factors and regulators to the viral nucleoprotein by AlphaScreen, crude cell-free proteins, amounts not normalised, one pass. Fold of the Venus control; higher = more signal. No active / inactive call. Single-pass screen; sequences are the whole Swiss-Prot entries looked up by name.

B1: ZNF232, Q9UNY5 (protein)
chain: MEPPGPVRGPLQDSSWYEPSAELVQTRMAVSLTAAETLALQGTQGQEKMMMMGPKEEEQSCEYETRLPGNHSTSQEIFRQRFRHLRYQETPGPREALSQLRVLCCEWLRPEKHTKEQILEFLVLEQFLTILPEELQSWVRGHHPKSGEEAVTVLEDLEKGLEPEPQVPGPAHGPAQEEPWEKKESLGAAQEALSIQLQPKETQPFPKSEQVYLHFLSVVTEDGPEPKDKGSLPQPPITEVESQVFSEKLATDTSTFEATSEGTLELQQRNPKAERLRWSPAQEESFRQMVVIHKEIPTGKKDHECSECGKTFIYNSHLVVHQRVHSGEKPYKCSDCGKTFKQSSNLGQHQRIHTGEKPFECNECGKAFRWGAHLVQHQRIHSGEKPYECNECGKAFSQSSYLSQHRRIHSGEKPFICKECGKAYGWCSELIRHRRVHARKEPSH
B2: PATZ1, Q9HBE1 (protein)
chain: MERVNDASCGPSGCYTYQVSRHSTEMLHNLNQQRKNGGRFCDVLLRVGDESFPAHRAVLAACSEYFESVFSAQLGDGGAADGGPADVGGATAAPGGGAGGSRELEMHTISSKVFGDILDFAYTSRIVVRLESFPELMTAAKFLLMRSVIEICQEVIKQSNVQILVPPARADIMLFRPPGTSDLGFPLDMTNGAALAANSNGIAGSMQPEEEAARAAGAAIAGQASLPVLPGVDRLPMVAGPLSPQLLTSPFPSVASSAPPLTGKRGRGRPRKANLLDSMFGSPGGLREAGILPCGLCGKVFTDANRLRQHEAQHGVTSLQLGYIDLPPPRLGENGLPISEDPDGPRKRSRTRKQVACEICGKIFRDVYHLNRHKLSHSGEKPYSCPVCGLRFKRKDRMSYHVRSHDGSVGKPYICQSCGKGFSRPDHLNGHIKQVHTSERPHKCQTCNASFATRDRLRSHLACHEDKVPCQVCGKYLRAAYMADHLKKHSEGPSNFCSICNRGFSSASYLKVHVKTHHGVPLPQVSRHQEPILNGGAAFHCARTYGNKEGQKCSHQDPIESSDSYGDLSDASDLKTPEKQSANGSFSCDMAVPKNKMESDGEKKYPCPECGSFFRSKSYLNKHIQKVHVRALGGPLGDLGPALGSPFSPQQNMSLLESFGFQIVQSAFASSLVDPEVDQQPMGPEGK
B3: XBP1, P17861 (protein)
chain: MVVVAAAPNPADGTPKVLLLSGQPASAAGAPAGQALPLMVPAQRGASPEAASGGLPQARKRQRLTHLSPEEKALRRKLKNRVAAQTARDRKKARMSELEQQVVDLEEENQKLLLENQLLREKTHGLVVENQELRQRLGMDALVAEEEAEAKGNEVRPVAGSAESAALRLRAPLQQVQAQLSPLQNISPWILAVLTLQIQSLISCWAFWTTWTQSCSSNALPQSLPAWRSSQRSTQKDPVPYQPPFLCQWGRHQPSWKPLMN
B4: CRTC3, Q6UUV7 (protein)
chain: MAASPGSGSANPRKFSEKIALHTQRQAEETRAFEQLMTDLTLSRVQFQKLQQLRLTQYHGGSLPNVSQLRSSASEFQPSFHQADNVRGTRHHGLVERPSRNRFHPLHRRSGDKPGRQFDGSAFGANYSSQPLDESWPRQQPPWKDEKHPGFRLTSALNRTNSDSALHTSALSTKPQDPYGGGGQSAWPAPYMGFCDGENNGHGEVASFPGPLKEENLLNVPKPLPKQLWETKEIQSLSGRPRSCDVGGGNAFPHNGQNLGLSPFLGTLNTGGSLPDLTNLHYSTPLPASLDTTDHHFGSMSVGNSVNNIPAAMTHLGIRSSSGLQSSRSNPSIQATLNKTVLSSSLNNHPQTSVPNASALHPSLRLFSLSNPSLSTTNLSGPSRRRQPPVSPLTLSPGPEAHQGFSRQLSSTSPLAPYPTSQMVSSDRSQLSFLPTEAQAQVSPPPPYPAPQELTQPLLQQPRAPEAPAQQPQAASSLPQSDFQLLPAQGSSLTNFFPDVGFDQQSMRPGPAFPQQVPLVQQGSRELQDSFHLRPSPYSNCGSLPNTILPEDSSTSLFKDLNSALAGLPEVSLNVDTPFPLEEELQIEPLSLDGLNMLSDSSMGLLDPSVEETFRADRL
B5: RORA, P35398 (protein)
chain: MESAPAAPDPAASEPGSSGADAAAGSRETPLNQESARKSEPPAPVRRQSYSSTSRGISVTKKTHTSQIEIIPCKICGDKSSGIHYGVITCEGCKGFFRRSQQSNATYSCPRQKNCLIDRTSRNRCQHCRLQKCLAVGMSRDAVKFGRMSKKQRDSLYAEVQKHRMQQQQRDHQQQPGEAEPLTPTYNISANGLTELHDDLSNYIDGHTPEGSKADSAVSSFYLDIQPSPDQSGLDINGIKPEPICDYTPASGFFPYCSFTNGETSPTVSMAELEHLAQNISKSHLETCQYLREELQQITWQTFLQEEIENYQNKQREVMWQLCAIKITEAIQYVVEFAKRIDGFMELCQNDQIVLLKAGSLEVVFIRMCRAFDSQNNTVYFDGKYASPDVFKSLGCEDFISFVFEFGKSLCSMHLTEDEIALFSAFVLMSADRSWLQEKVKIEKLQQKIQLALQHVLQKNHREDGILTKLICKVSTLRALCGRHTEKLMAFKAIYPDIVRLHFPPLYKELFTSEFEPAMQIDG
B6: MKX, Q8IYA7 (protein)
chain: MNTIVFNKLSGAVLFEDGGASERERGGRPYSGVLDSPHARPEVGIPDGPPLKDNLGLRHRRTGARQNGGKVRHKRQALQDMARPLKQWLYKHRDNPYPTKTEKILLALGSQMTLVQVSNWFANARRRLKNTVRQPDLSWALRIKLYNKYVQGNAERLSVSSDDSCSEDGENPPRTHMNEGGYNTPVHHPVIKSENSVIKAGVRPESRASEDYVAPPKYKSSLLNRYLNDSLRHVMATNTTMMGKTRQRNHSGSFSSNEFEEELVSPSSSETEGNFVYRTDTLENGSNKGESAANRKGPSKDDTYWKEINAAMALTNLAQGKDKLQGTTSCIIQKSSHIAEVKTVKVPLVQQF
B7: BTK, Q06187 (protein)
chain: MAAVILESIFLKRSQQKKKTSPLNFKKRLFLLTVHKLSYYEYDFERGRRGSKKGSIDVEKITCVETVVPEKNPPPERQIPRRGEESSEMEQISIIERFPYPFQVVYDEGPLYVFSPTEELRKRWIHQLKNVIRYNSDLVQKYHPCFWIDGQYLCCSQTAKNAMGCQILENRNGSLKPGSSHRKTKKPLPPTPEEDQILKKPLPPEPAAAPVSTSELKKVVALYDYMPMNANDLQLRKGDEYFILEESNLPWWRARDKNGQEGYIPSNYVTEAEDSIEMYEWYSKHMTRSQAEQLLKQEGKEGGFIVRDSSKAGKYTVSVFAKSTGDPQGVIRHYVVCSTPQSQYYLAEKHLFSTIPELINYHQHNSAGLISRLKYPVSQQNKNAPSTAGLGYGSWEIDPKDLTFLKELGTGQFGVVKYGKWRGQYDVAIKMIKEGSMSEDEFIEEAKVMMNLSHEKLVQLYGVCTKQRPIFIITEYMANGCLLNYLREMRHRFQTQQLLEMCKDVCEAMEYLESKQFLHRDLAARNCLVNDQGVVKVSDFGLSRYVLDDEYTSSVGSKFPVRWSPPEVLMYSKFSSKSDIWAFGVLMWEIYSLGKMPYERFTNSETAEHIAQGLRLYRPHLASEKVYTIMYSCWHEKADERPTFKILLSNILDVMDEES
B8: SCX, Q7RTU7 (protein)
chain: MSFATLRPAPPGRYLYPEVSPLSEDEDRGSDSSGSDEKPCRVHAARCGLQGARRRAGGRRAGGGGPGGRPGREPRQRHTANARERDRTNSVNTAFTALRTLIPTEPADRKLSKIETLRLASSYISHLGNVLLAGEACGDGQPCHSGPAFFHAARAGSPPPPPPPPPARDGENTQPKQICTFCLSNQRKLSKDRDRKTAIRS
B9: ZGLP1, P0C6A0 (protein)
chain: MEAEPIPDSSMPAKLLAPPCLNLERLGGSPSQEKPRTPGCCRISERSLWPACQESVTALCFLQETVERLGQSPAQDTPVLGPCWDPMALGTQGRLLLDRDSKDTQTRISQKGRRLQPPGTPSAPPQRRPRKQLNPCRGTERVDPGFEGVTLKFQIKPDSSLQIIPTYSLPCSSRSQESPADAVGGPAAHPGGTEAHSAGSEALEPRRCASCRTQRTPLWRDAEDGTPLCNACGIRYKKYGTRCSSCWLVPRKNVQPKRLCGRCGVSLDPIQEG
B10: FOXR2, Q6PJQ5 (protein)
chain: MDLKLKDCEFWYSLHGQVPGLLDWDMRNELFLPCTTDQCSLAEQILAKYRVGVMKPPEMPQKRRPSPDGDGPPCEPNLWMWVDPNILCPLGSQEAPKPSGKEDLTNISPFPQPPQKDEGSNCSEDKVVESLPSSSSEQSPLQKQGIHSPSDFELTEEEAEEPDDNSLQSPEMKCYQSQKLWQINNQEKSWQRPPLNCSHLIALALRNNPHCGLSVQEIYNFTRQHFPFFWTAPDGWKSTIHYNLCFLDSFEKVPDSLKDEDNARPRSCLWKLTKEGHRRFWEETRVLAFAQRERIQECMSQPELLTSLFDL
B11: ZHX3, Q9H4I2 (protein)
chain: MASKRKSTTPCMIPVKTVVLQDASMEAQPAETLPEGPQQDLPPEASAASSEAAQNPSSTDGSTLANGHRSTLDGYLYSCKYCDFRSHDMTQFVGHMNSEHTDFNKDPTFVCSGCSFLAKTPEGLSLHNATCHSGEASFVWNVAKPDNHVVVEQSIPESTSTPDLAGEPSAEGADGQAEIIITKTPIMKIMKGKAEAKKIHTLKENVPSQPVGEALPKLSTGEMEVREGDHSFINGAVPVSQASASSAKNPHAANGPLIGTVPVLPAGIAQFLSLQQQPPVHAQHHVHQPLPTAKALPKVMIPLSSIPTYNAAMDSNSFLKNSFHKFPYPTKAELCYLTVVTKYPEEQLKIWFTAQRLKQGISWSPEEIEDARKKMFNTVIQSVPQPTITVLNTPLVASAGNVQHLIQAALPGHVVGQPEGTGGGLLVTQPLMANGLQATSSPLPLTVTSVPKQPGVAPINTVCSNTTSAVKVVNAAQSLLTACPSITSQAFLDASIYKNKKSHEQLSALKGSFCRNQFPGQSEVEHLTKVTGLSTREVRKWFSDRRYHCRNLKGSRAMIPGDHSSIIIDSVPEVSFSPSSKVPEVTCIPTTATLATHPSAKRQSWHQTPDFTPTKYKERAPEQLRALESSFAQNPLPLDEELDRLRSETKMTRREIDSWFSERRKKVNAEETKKAEENASQEEEEAAEDEGGEEDLASELRVSGENGSLEMPSSHILAERKVSPIKINLKNLRVTEANGRNEIPGLGACDPEDDESNKLAEQLPGKVSCKKTAQQRHLLRQLFVQTQWPSNQDYDSIMAQTGLPRPEVVRWFGDSRYALKNGQLKWYEDYKRGNFPPGLLVIAPGNRELLQDYYMTHKMLYEEDLQNLCDKTQMSSQQVKQWFAEKMGEETRAVADTGSEDQGPGTGELTAVHKGMGDTYSEVSENSESWEPRVPEASSEPFDTSSPQAGRQLETD

This assay deals with nucleoprotein N of Crimean-Congo hemorrhagic fever virus. In words: AlphaScreen luminescence signal relative to Venus negative control (fold); higher = stronger binding to CCHFV N. As to the method: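 AlphaScreen binding of cell-free made, FLAG-GST-tagged human transcription factors and regulators (crude translation products) to biotinylated N protein; signal as fold of the FLAG-GST-Venus control. One pass.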
A general note: Bead proximity is the source of the signal in Alpha formats.
The molecule B1 displayed an AlphaScreen luminescence signal of 1.26.
Then B2, with 1.95.
Then B3, with 3.67.
Molecule B4 registered an AlphaScreen luminescence signal of 1.26.
B5 came in with an AlphaScreen luminescence signal of 2.33.
The figure for B6 is 2.14; for B7 it is 3.58.
The molecule B8 registered an AlphaScreen luminescence signal of 2.84.
Then B9, with 1.72.
B10 displayed an AlphaScreen luminescence signal of 2.14.
In the case of B11, the AlphaScreen luminescence signal was determined as 1.12.
